Reference: US20240287457A1, “COMPOSITIONS AND CELL CULTURE MEDIA FOR INCREASING NEUTROPHIL LIFESPAN” (THE CHILDREN'S MEDICAL CENTER CORPORATION, priority 2021, published 2024)

B1: G-CSF: granulocyte colony-stimulating factor (AMGEN, NEUPOGEN), PI3K/Akt pathway stimulator (protein, listed as Homo sapiens)
chain: MTPLGPASSLPQSFLLKCLEQVRKIQGDGAALQEKLCATYKLCHPEELVLLGHSLGIPWAPLSSCPSQALQLAGCLSQLHSGLFLYQGLLQALEGISPELGPTLDTLQLDVADFATTIWQQMEELGMAPALQPTQGAMPAFASAFQRRAGGVLVASHLQSFLEVSYRVLRHLAQP

Legend:
murine neutrophils = assay: In vitro neutrophil death / survival of cultured murine neutrophils; format: cell-based, mouse
human neutrophils = assay: In vitro neutrophil death / survival of cultured human neutrophils

| Molecule | Neutrophil survival after 3 days - normalized to fresh neutrophils (100) (murine neutrophils; 100 nM) | Neutrophil survival after 3 days - normalized to fresh neutrophils (100) (murine neutrophils; 1 μM) | Neutrophil survival after 3 days - normalized to fresh neutrophils (100) (murine neutrophils; 10 μM) | Neutrophil survival after 3 days - normalized to fresh neutrophils (100) (murine neutrophils; 100 μM) | Neutrophil survival after 3 days - normalized to fresh neutrophils (100) (murine neutrophils; 200 μM) | Neutrophil survival after 3 days - normalized to fresh neutrophils (100) (human neutrophils; 100 nM) | Neutrophil survival after 3 days - normalized to fresh neutrophils (100) (human neutrophils; 1 μM) | Neutrophil survival after 3 days - normalized to fresh neutrophils (100) (human neutrophils; 10 μM) | Neutrophil survival after 3 days - normalized to fresh neutrophils (100) (human neutrophils; 100 μM) | Neutrophil survival after 3 days - normalized to fresh neutrophils (100) (human neutrophils; 200 μM) | other results |
| --- | --- | --- | --- | --- | --- | --- | --- | --- | --- | --- | --- |
| C[C@H](NC(=O)C(=O)Nc1ccccc1C(C)(C)C)C(=O)N[C@@H](CC(=O)O)C(=O)COc1c(F)c(F)cc(F)c1F [Emricasan, N-[2-(1,1-dimethylethyl)phenyl]-2-oxoglycyl-N-[(1S)-1-(carboxymethyl)-2-oxo-3-(2,3,5,6-tetrafluorophenoxy)propyl]-L-Alaninamide] | <10 | <10 | <10 | <10 | <10 | <25 | <25 | <25 | <25 | <25 |  |
| CCN(CC)CCCC(C)Nc1nc(C)cc(Nc2ccc3nc(C)cc(N)c3c2)n1 (stereo not drawn) [NSC23766] | <10 | <10 | <10 | <10 |  | <25 | <25 | <25 | <25 |  |  |
| CN1C(=O)NC(Cc2c[nH]c3c(Cl)cccc23)C1=O (stereo not drawn) [Nec-1s, Necrostatin-1s] | <10 | <10 | <10 | <10 | <10 | <25 | <25 | <25 | <25 | <25 |  |
| B1 |  |  |  |  |  |  |  |  |  |  | Neutrophil survival after 3 days - normalized to fresh neutrophils (100) (murine neutrophils; 1 ng/ml): 19 ± 2.3; Neutrophil survival after 3 days - normalized to fresh neutrophils (100) (murine neutrophils; 10 ng/ml): 21 ± 2.3; Neutrophil survival after 3 days - normalized to fresh neutrophils (100) (murine neutrophils; 100 ng/ml): 21 ± 1.5; Neutrophil survival after 3 days - normalized to fresh neutrophils (100) (murine neutrophils; 1 μg/ml): 21 ± 1.8; Neutrophil survival after 3 days - normalized to fresh neutrophils (100) (murine neutrophils; 10 μg/ml): 21 ± 1.2; Neutrophil survival after 3 days - normalized to fresh neutrophils (100) (human neutrophils; 1 ng/ml): 31 ± 2.1; Neutrophil survival after 3 days - normalized to fresh neutrophils (100) (human neutrophils; 10 ng/ml): 35 ± 4.5; Neutrophil survival after 3 days - normalized to fresh neutrophils (100) (human neutrophils; 100 ng/ml): 30 ± 5.5; Neutrophil survival after 3 days - normalized to fresh neutrophils (100) (human neutrophils; 200 ng/ml): 31 ± 2.1; Neutrophil survival after 3 days - normalized to fresh neutrophils (100) (human neutrophils; 1 μg/ml): 34 ± 3.2; Neutrophil survival after 3 days - normalized to fresh neutrophils (100) (human neutrophils; 10 μg/ml): 32 ± 5.4 |
